The text below walks through data of the antibiotic and cytotoxicity screens of Wong et al. (2023).

Each structure is given as a SMILES string. The list shows a part of the results.

For one assay, the system named is HSkMC. The assay is described as follows: cytotoxicity call (relative viability < 0.9). To be noted: 10 µM.
In another assay the test system is HepG2. The assay can be described thus: cytotoxicity call (relative viability < 0.9). The conditions noted are these: 10 µM.
For another assay, the system named is S. aureus RN4220. The assay can be described thus: growth inhibition call (relative growth <= 0.2). The conditions noted are these: 50 µM.

On to `COCC(=O)Nc1ccc2c(c1)OC[C@H](C)N(Cc1cccc(F)c1)C[C@H](C)[C@@H](OC)CN(C)C2=O`, for which the cytotoxicity call with HSkMC and in the assay on HepG2 was “inactive” in each case. Besides, in the assay with S. aureus RN4220, the growth inhibition call was “inactive”.
Turning to `C[C@@H]1CN([C@H](C)CO)C(=O)c2cccc(NC(=O)C3CCOCC3)c2O[C@H]1CN(C)S(=O)(=O)c1ccc(Cl)cc1`, the cytotoxicity call in the assay on HSkMC and in the assay on HepG2 was “inactive” each time. For the same compound, the growth inhibition call with S. aureus RN4220 is “inactive”.
`C[C@@H]1CN([C@@H](C)CO)S(=O)(=O)c2ccc(C#CC3(O)CCCC3)cc2O[C@@H]1CN(C)C(=O)c1cccnc1`: the cytotoxicity call with HSkMC and in the assay with HepG2 was “inactive” each time. In addition, the growth inhibition call with S. aureus RN4220 is “inactive”.
Regarding `CCCN(C)C[C@H]1Oc2cc(C#Cc3cccc(OC)c3)ccc2S(=O)(=O)N([C@@H](C)CO)C[C@H]1C`, the cytotoxicity call in the assay on HSkMC and in the assay with HepG2 was “inactive” in each case. In addition, in the assay with S. aureus RN4220, the growth inhibition call is “inactive”.
As to `COc1ccc(C#Cc2ccc3c(c2)[C@]2(C(=O)N3)[C@H](C(=O)N3CCN(c4ncccn4)CC3)[C@H]3C(=O)O[C@H](c4ccccc4)[C@H](c4ccccc4)N3[C@@H]2c2ccc(OCCO)cc2)cc1`, the cytotoxicity call in the assay with HSkMC and in the assay on HepG2 was “inactive” throughout. Besides, the growth inhibition call in the assay with S. aureus RN4220 was “inactive”.
Regarding `C[C@@H]1CN([C@H](C)CO)C(=O)Cc2cc(NC(=O)Nc3cccc4ccccc34)ccc2O[C@H]1CN(C)Cc1ccc2c(c1)OCO2`, the cytotoxicity call with HSkMC and with HepG2 was “inactive” throughout. In the assay on S. aureus RN4220, the growth inhibition call was “inactive”.
For the compound `O=C(C[C@@H]1CC[C@H]2[C@@H](COC[C@H](O)CN2C(=O)Nc2cccc(Cl)c2)O1)NCc1ccccc1F`, the cytotoxicity call in the assay on HSkMC and in the assay with HepG2 was “inactive” in each case. In addition, the growth inhibition call in the assay on S. aureus RN4220 was “active”.
`CC(C)NC(=O)Nc1ccc2c(c1)C(=O)N([C@@H](C)CO)C[C@H](C)[C@H](CN(C)C(=O)C1CCCCC1)OCCCC[C@@H](C)O2`: the cytotoxicity call in the assay with HSkMC and with HepG2 was “inactive” throughout. Further, the growth inhibition call in the assay on S. aureus RN4220 was “inactive”.
As for `C[C@H]1CN([C@@H](C)CO)C(=O)Cc2cc(NS(C)(=O)=O)ccc2O[C@H]1CN(C)C(=O)Nc1ccc(C(F)(F)F)cc1`, the cytotoxicity call with HSkMC and in the assay on HepG2 was “inactive” in each case. Further, the growth inhibition call in the assay with S. aureus RN4220 was “inactive”.
`C[C@@H]1CCCCO[C@@H](CN(C)CC2CCCCC2)[C@@H](C)CN([C@@H](C)CO)C(=O)c2cc(NC(=O)Nc3cccc4ccccc34)ccc2O1`: the cytotoxicity call in the assay on HSkMC and in the assay on HepG2 was “active” in each case. The growth inhibition call in the assay on S. aureus RN4220 was “inactive”.
`O=C(C[C@H]1CC[C@H]2[C@@H](COC[C@H](O)CN2Cc2ccccc2F)O1)N[C@@H]1CCN(Cc2ccccc2)C1`: the cytotoxicity call in the assay on HSkMC and with HepG2 was “inactive” in each case. The growth inhibition call with S. aureus RN4220 was “inactive”.
`COc1ccc([C@@H]2CC(=O)c3c(O)cc(O[C@@H]4O[C@H](CO)[C@@H](O)[C@H](O)[C@H]4O[C@@H]4O[C@@H](C)[C@H](O)[C@@H](O)[C@H]4O)cc3O2)cc1O`: the cytotoxicity call with HSkMC and with HepG2 was “inactive” each time. Moreover, the growth inhibition call with S. aureus RN4220 is “inactive”.
Consider `c1ccc(-c2ccnc(-c3cc(-c4ccccc4)ccn3)c2)cc1`, for which the cytotoxicity call in the assay on HSkMC and in the assay with HepG2 was “inactive” each time. Besides, the growth inhibition call in the assay on S. aureus RN4220 is “inactive”.
As for `C[C@H]1CN([C@@H](C)CO)C(=O)c2cccc(NC(=O)c3ccc(-c4nccs4)cc3)c2O[C@@H]1CN(C)Cc1ccc(Cl)c(Cl)c1`, in the assay with HSkMC, the cytotoxicity call was “active”. In addition, the cytotoxicity call with HepG2 is “inactive”. The growth inhibition call in the assay on S. aureus RN4220 was “inactive”.
`Cc1ccc(S(=O)(=O)N(C)C[C@@H]2Oc3c(NS(=O)(=O)c4ccc(F)cc4)cccc3C(=O)N([C@H](C)CO)C[C@@H]2C)cc1`: the cytotoxicity call in the assay on HSkMC and with HepG2 was “inactive” each time. Besides, in the assay with S. aureus RN4220, the growth inhibition call was “inactive”.
Consider `C[C@@H]1CCCCO[C@H](CN(C)Cc2ccncc2)[C@@H](C)CN([C@H](C)CO)C(=O)c2cc(NC(=O)Nc3cccc4ccccc34)ccc2O1`, for which the cytotoxicity call with HSkMC and with HepG2 was “inactive” in each case. Also, the growth inhibition call in the assay on S. aureus RN4220 is “inactive”.
`COc1ccc(S(=O)(=O)N(C)C[C@@H]2Oc3ccc(N(C)C)cc3CC(=O)N([C@H](C)CO)C[C@@H]2C)cc1`: the cytotoxicity call in the assay on HSkMC was “active”. For the same compound, in the assay on HepG2, the cytotoxicity call was “inactive”. In the assay on S. aureus RN4220, the growth inhibition call was “inactive”.
For the compound `CC(C)NC(=O)N(C)C[C@@H]1Oc2ccc(NC(=O)c3ccncc3)cc2CC(=O)N([C@@H](C)CO)C[C@@H]1C`, the cytotoxicity call in the assay on HSkMC and with HepG2 was “inactive” each time. In addition, the growth inhibition call in the assay with S. aureus RN4220 was “inactive”.
For `C[C@H]1CCCCO[C@H](CN(C)C(=O)c2ccccc2)[C@@H](C)CN([C@@H](C)CO)C(=O)c2cc(NC(=O)Nc3ccc(C(F)(F)F)cc3)ccc2O1`, the cytotoxicity call in the assay with HSkMC and in the assay on HepG2 was “inactive” throughout. Further, the growth inhibition call with S. aureus RN4220 is “inactive”.
For `OC[C@@H]1O[C@H](O)[C@H](O)[C@H](O[C@@H]2O[C@H](CO)[C@H](O)[C@H](O[C@@H]3O[C@H](CO)[C@@H](O)[C@H](O)[C@@H]3O)[C@H]2O)[C@H]1O`, the cytotoxicity call in the assay on HSkMC and in the assay with HepG2 was “inactive” in each case. Further, the growth inhibition call in the assay on S. aureus RN4220 is “inactive”.
With `COc1ccc2c(c1)OCC(Cc1ccc(O)c(OC)c1)C2=O` (stereo unspecified), the cytotoxicity call in the assay on HSkMC and in the assay on HepG2 was “inactive” throughout. Moreover, the growth inhibition call with S. aureus RN4220 was “inactive”.
For `C[C@H](CO)N1C[C@H](C)[C@H](CN(C)CC2CCOCC2)Oc2ncc(C#CCc3ccccc3)cc2C1=O`, the cytotoxicity call in the assay with HSkMC and in the assay on HepG2 was “inactive” each time. Moreover, in the assay on S. aureus RN4220, the growth inhibition call is “inactive”.
Turning to `C[C@H](CO)N1C[C@H](C)[C@@H](CN(C)Cc2ccc(-c3ccccc3)cc2)Oc2ccc(NC(=O)Nc3ccccc3)cc2C1=O`, the cytotoxicity call in the assay on HSkMC was “inactive”. In the assay on HepG2, the cytotoxicity call was “active”. Moreover, in the assay on S. aureus RN4220, the growth inhibition call was “inactive”.
For the compound `CC(C)NC(=O)N(C)C[C@H]1Oc2ncc(-c3ccc(C(=O)N(C)C)cc3)cc2C(=O)N([C@@H](C)CO)C[C@@H]1C`, the cytotoxicity call with HSkMC and in the assay with HepG2 was “inactive” each time. In the assay on S. aureus RN4220, the growth inhibition call is “inactive”.
`CC(C)(/N=N/C(C)(C)C(=N)N)C(=N)N`: the cytotoxicity call with HSkMC and in the assay on HepG2 was “inactive” each time. Further, in the assay on S. aureus RN4220, the growth inhibition call is “inactive”.
With `COc1ccc(N2C(=O)C[C@@H](c3ccc(Br)cc3)[C@H]2C(=O)Nc2cccc3cccnc23)cc1`, the cytotoxicity call in the assay on HSkMC and in the assay with HepG2 was “inactive” in each case. Moreover, the growth inhibition call with S. aureus RN4220 is “inactive”.
On to `C[C@@H]1CN([C@H](C)CO)S(=O)(=O)c2ccc(C#Cc3ccccc3F)cc2O[C@@H]1CN(C)C(=O)c1ccc2c(c1)OCO2`, for which the cytotoxicity call in the assay on HSkMC (human skeletal muscle cells) and in the assay with HepG2 was “inactive” throughout. For the same compound, in the assay on S. aureus RN4220, the growth inhibition call was “inactive”.
